In PMC6919601, “Identification of Plasmodium dipeptidyl aminopeptidase allosteric inhibitors by high throughput screening” (PLoS ONE, 2019):
Where “and” joins values, the source holds several entries; their conditions need not be identical. Equal values may be shown once. The campaign covered roughly 110,000 compounds. About 230 (0.21%) showed an effect of 50% or more. Some of the results follow.

Biological target: DPAP1 (Plasmodium falciparum, UniProt Q8IIJ9)
Assay: primary screen, percent inhibition; read by cleavage of a fluorogenic dipeptide substrate; higher = more effect of the substance
Parameters: species or system P. falciparum D10 trophozoite lysates; single well
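Note: 30 min substrate incubation versus DMSO and 10 µM JCP410 controls.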

Chain of DPAP1 (Q8IIJ9 whole entry, looked up): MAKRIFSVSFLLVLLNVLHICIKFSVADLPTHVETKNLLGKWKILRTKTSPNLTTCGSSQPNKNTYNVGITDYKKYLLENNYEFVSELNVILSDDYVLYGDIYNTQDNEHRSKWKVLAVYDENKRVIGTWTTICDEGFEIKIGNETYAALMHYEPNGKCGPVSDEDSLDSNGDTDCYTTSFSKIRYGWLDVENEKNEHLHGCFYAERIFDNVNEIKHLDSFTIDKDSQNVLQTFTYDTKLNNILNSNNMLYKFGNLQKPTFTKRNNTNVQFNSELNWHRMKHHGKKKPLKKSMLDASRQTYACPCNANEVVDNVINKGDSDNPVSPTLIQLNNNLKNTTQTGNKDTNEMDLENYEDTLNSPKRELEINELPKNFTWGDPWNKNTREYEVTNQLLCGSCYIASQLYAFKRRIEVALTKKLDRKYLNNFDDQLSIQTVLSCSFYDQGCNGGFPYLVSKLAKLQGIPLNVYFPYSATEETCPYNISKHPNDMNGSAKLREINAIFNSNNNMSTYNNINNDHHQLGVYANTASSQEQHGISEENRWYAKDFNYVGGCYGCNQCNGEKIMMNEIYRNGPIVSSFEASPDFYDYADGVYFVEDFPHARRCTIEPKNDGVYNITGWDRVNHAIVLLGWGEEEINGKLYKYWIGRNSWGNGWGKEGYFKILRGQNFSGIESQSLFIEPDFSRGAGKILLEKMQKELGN

| Structure (SMILES) | % Inhibition @ 10 uM |
| --- | --- |
| CCOCCn1c(-c2ccc(OC)cc2)nc2ccccc21 | -8.28% |
| Cc1ccc(CCNC(=O)CCc2nc3ncccc3c(=O)n2Cc2ccccc2)cc1 | -0.72% |
| CCOc1ccc(C(=O)Nc2cccc(OC)c2)cc1 | 0.00519% |
| COc1ccc(C2C(C#N)=C(N)OC3=C2C(=O)CCC3)cc1COc1ccccc1Cl (centres unmarked) | -1.84% |
| CN(C)CCNc1nc2c(c(=O)[nH]c(=O)n2C)n1CCc1ccccc1 | -3.41% |
| N#CC1=C(N)OC2=C(C(=O)CCC2)C1Cc1ccccc1 (centres unmarked) | 0.565% |
| C=C(C)C[C@H]1CC=C[C@H](CC(=C)C)N1CCO | -4.8% |
| CC(C)C[C@H](NC(=O)c1ccc(NC(=O)OCCc2ccccn2)cc1)C(=O)NCC#N | -7.36% |
| COCC(=O)n1nc(-c2cccnc2)nc1NCc1ccccc1 | -2.92% |
| COc1ccc(-c2cn3nc(N4CCCC(C(=O)N5CCN(C)CC5)C4)sc3n2)cc1 (centres unmarked) | 8.55% |
| Cc1cc2nc(C)n(CCOc3ccccc3C)c2cc1C | -2.88% |
| CCCS(=O)(=O)c1c(S(=O)(=O)CCC)c2cnccn2c1C(=O)c1ccc(C)cc1 | -4.24% |
| COC(=O)C1=C(O)/C(=C\c2ccc(Cl)cc2Cl)N=C1C | -0.711% and 5% |
| O=[N+]([O-])c1ccc2nc3c4ccccc4n(Cc4ccccc4)c3cc2c1 | 10.2% |
| c1ccc(CCNC2CCCc3c2[nH]c2ccc(C4CCCCC4)cc32)cc1 (centres unmarked) | 9.41% |
| CCOC(=O)N1CCC(N(CCc2ccccc2)Cc2ccccc2)CC1 | -3.6% |
| CC1(C)CC(=O)C2=C(C1)OC(n1cccc1)=C(C#N)C2c1ccccc1 (centres unmarked) | 1.76% |
| COc1ccc(Cl)cc1N1C(=O)C(Cl)=C(N2CCCCC2)C1=O | 2.36% |
| O=C(CCC(=O)N1CCSc2ncccc21)NCCc1cccs1 | -1.23% |
| CCOC(=O)c1c[nH]nc1N | -1.99% |
| COc1ccc2cc(/N=C/c3nc(-c4ccc(C)cc4)oc3O)cnc2c1 | 2.11% |
| COc1ccc(C(=O)N/C(=C\c2ccc(Cl)cc2)C(=O)NCCCN(C)C)cc1 | -1.93% |
| CCCCN(CC)CCCNC(=O)C1c2ccccc2C(=O)N(C)C1c1c[nH]c2ccccc12 (centres unmarked) | 2.35% |
| Cc1ccc(S(=O)(=O)N(CC(=O)NCc2ccco2)c2cc(C)cc(C)c2)cc1 | -3.95% |
| CN(CCc1ccccn1)c1ncnc2c1cnn2-c1ccc(Cl)cc1 | -2.49% |

| Structure (SMILES) | % Inhibition @ 10 uM |
| --- | --- |
| Cc1ccc(NC(=O)C2CCCN(S(=O)(=O)c3cccs3)C2)cn1 (centres unmarked) | 1.2% |
| Cn1c(=O)c2c(-c3ccccc3)n(-c3ccccn3)cc2n(C)c1=O | 2.02% |
| O=C(NCc1ccc2c(c1)OCO2)c1nc(Cn2cc(Br)cn2)no1 | 1.84% |
| CCC1(C)Cc2ccccc2-c2nc(S)nc(O)c21 (centres unmarked) | -6.29% |
| CC(=O)N/C=C1/C(=O)NC(=O)N(c2cccc(C)c2)C1=O | -0.736% |
| CCC(C)C(NCc1cccc(Br)c1)C(=O)O (centres unmarked) | -1.99% |
| CCOC(=O)C1=C(CS(=O)(=O)c2ccccc2)NC(=O)NC1c1cccc(OC)c1 (centres unmarked) | 2.85% |
| CCOC(=O)c1cc2c(=O)n3ccccc3nc2n(C)/c1=N\C(C)=O | 2.84% |
| C(=N\N=C1c2ccccc2-c2ccccc21)/c1cccnc1 | 4.1% |
| CCOc1ccccc1-n1c(C)cc(/C=C2/C(=N)N3C(=NC2=O)SN=C3S(C)(=O)=O)c1C | 0.163% |
| CCc1ccc(/C=C(/NC(=O)c2ccccc2)C(=O)O)s1 | 6.31% |
| COc1cccc(C2=CC(c3cc(OC)ccc3OC)n3nnnc3N2)c1 (centres unmarked) | -7.08% |
| Cc1n[nH]c(C)c1N1C(=O)c2cccc3c(N)ccc(c23)C1=O | 2.46% and -0.116% |
| NC(Cc1c[nH]c2ccccc12)C(=O)NCc1ccccc1 (centres unmarked) | -4.16% |
| COc1cc(Br)cc2cc(-c3nc4ccccc4s3)c(=O)oc12 | -3.53% |
| CCOC(=O)c1cc(S(=O)(=O)NC2CCCc3ccccc32)cn1C (centres unmarked) | 2.32% |
| CC1CCCCN1S(=O)(=O)c1ccc(F)cc1 (centres unmarked) | 5.35% |
| Cc1cc(-c2nc3ccccc3o2)c2ccccc2n1 | -6.12% |
| CC(=O)Nc1ccccc1NC(C)=C1C(=O)N(C)C(=O)N(C)C1=O | -6.27% |
| C=CCOC(=O)C1=C(C)N=C2CCCC(O)=C2C1c1ccccc1OCCCC (centres unmarked) | 18% |
| CC12CN3CC(C)(CN(C1)C3c1cccnc1)C2=O (centres unmarked) | 2.51% |
| Cc1nn(Cc2ccc(C(=O)Nc3ccc(CC#N)cc3)cc2)c(C)c1Cl | 1.35% |
| COc1ccc(CCNc2ncnc3c2cnn3-c2ccc(Cl)cc2)cc1OC | 6.89% |
| Cc1c(C)n(Cc2ccccc2)c2ccc(C(=O)N3CCN(c4ncccn4)CC3)cc12 | 4.27% |
| COc1cc(C(=O)N2CCC3(CC2)N=C(c2ccccc2)C(=O)N3)cc(OC)c1OC | -3.22% |

| Structure (SMILES) | % Inhibition @ 10 uM |
| --- | --- |
| CC1=NN(C(=O)c2ccccc2-n2cccc2)C(O)(C(F)(F)F)C1 (centres unmarked) | 0.709% |
| CN1C(=O)/C(=C\c2cc(Cl)ccc2O)S/C1=N/c1ccccc1 | 15% |
| COc1ccc(Br)cc1CN(C)CCN(C)C | -0.833% |
| O=C(Cn1ncc2c3ccccc3n(Cc3ccccc3)c2c1=O)NCCc1c[nH]c2ccccc12 | 0.137% |
| COc1ccc(CCNS(=O)(=O)c2c(C)noc2C)cc1OC | 0.675% |
| C/C(=N\c1cccc2ccccc12)C1=C(O)CC(C)(C)CC1=O | -5.34% |
| CCOC(=O)c1c(CN2CCCCC2)n(C)c2cc(Br)c(O)c(CN(C)C)c12 | 0.778% |
| Cc1[nH]nc2c1C(c1c[nH]nc1-c1ccc(F)cc1)C(C#N)=C(N)O2 (centres unmarked) | -1.98% |
| COc1ccccc1/C=C1N=C(/C=C/c2ccc(C)cc2)OC\1=O | 6.56% |
| COc1cc(C(=O)O/N=C(\c2ccccc2)c2ccncc2)cc(OC)c1OC | 1.52% |
| COc1ccc2[nH]c3c(=O)n(CC(=O)N4CCN(Cc5ccccc5)CC4)c(=S)[nH]c3c2c1 | -0.495% |
| CC(=O)Nc1ccc(C(=O)Nc2cccc(Cl)c2C)cc1 | 3.16% |
| COc1ccc(CC(=O)Nc2ccccc2C(=O)Nc2ccccc2)cc1 | 5.42% |
| CC(C)C[C@H](NC(=O)c1cccc(-c2ccc(S(=O)(=O)NCc3ccccc3)s2)c1)C(=O)NCC#N | -3.48% |
| COc1ccc(C2(C(=O)NCCCN(C)C)CCOCC2)cc1 | -1.41% |
| CC1CCCC(NC(=O)c2cc(O)nc3ccc(S(=O)(=O)N4CCCCC4C)cc23)C1C (centres unmarked) | -3.12% |
| Nc1ccc(C(=O)N2CCN(c3cccc(Cl)c3Cl)CC2)c(C(=O)O)c1 | -0.318% |
| CN(C)c1ccc(NC(=O)c2cccs2)cc1 | 2.01% |
| CC(=O)C1=C(C)N=c2s/c(=C/c3ccc4c(c3)OCO4)c(=O)n2C1c1ccc(N(C)C)cc1 (centres unmarked) | -12.1% |
| CCOc1ccc(Sc2cc(C(=O)NCc3cccnc3)c3ccccc3n2)cc1 | -5.67% |
| CCN(Cc1ccccc1)C(=O)c1ccccc1Br | -4.3% |
| CC(=O)c1cccc(NC=C2C(=O)N(C)C(=O)N(C)C2=O)c1 | 0.687% |
| CC(C)(C)c1ccc(C(=O)NCCC(=O)NCc2ccco2)cc1 | 1.17% |
| CCOc1ccc(N(CC(=O)Nc2ccccc2F)S(C)(=O)=O)cc1 | -7.34% |
| O=C(O)c1ccc(Nc2nc3ccccc3nc2NS(=O)(=O)c2ccccc2)cc1 | 3.32% |

| Structure (SMILES) | % Inhibition @ 10 uM |
| --- | --- |
| CS(=O)(=O)N(CCc1ccccc1)CC(=O)N1CCN(c2ccc(F)cc2)CC1 | -3.33% |
| Clc1ccc(N2N=CCC2c2ccccc2)cc1 (centres unmarked) | 4.22% |
| c1ccc(Cn2nc3ccccc3n2)cc1 | -2.62% |
| Cc1cccc(NC(=O)c2ccc([N+](=O)[O-])cc2)c1 | 1.08% |
| CCOC(=O)c1c(NC(=O)c2ccc(OC)cc2)sc2c1CCC2 | 23.6% |
| CN1CCN(CC(O)Cn2c3ccccc3c3ccccc32)CC1 (centres unmarked) | -4.44% |
| CCN(CC)S(=O)(=O)c1ccc(NC(=O)C2CC2)cc1 | -4.63% |
| CCOC(=O)C1CCN(Cc2cccc(C(F)(F)F)c2)CC1 | 3.16% |
| CCCCC(=O)NCc1ccc(OC)cc1 | 0.13% |
| CC(CN1CCN(CC(c2ccc(F)cc2)N2CCN(C)CC2)CC1)C(=O)c1ccc(O)cc1 (centres unmarked) | -4.54% |
| N#C/C(=C\c1ccccc1Cl)c1nc(-c2ccc([N+](=O)[O-])cc2)cs1 | -2% |
| COc1cc(NS(=O)(=O)c2ccc(NC(=O)c3cc(Cl)sc3Cl)cc2)ncn1 | -0.68% |
| O=C(NCc1cccnc1)C1CCN(C(=O)c2cnn(-c3ccccc3)c2-n2cccc2)CC1 | 3.4% |
| O=C(O)c1ccc(-c2nnn(Cc3cccc(C(F)(F)F)c3)n2)cc1 | 1.74% |
| CNC(C)c1ccc(C2CCCC2)cc1 (centres unmarked) | 2.38% |
| CCOC(=O)c1sc2ncn(CC(=O)NCc3ccccc3)c(=O)c2c1C | -4.23% |
| O=C1C(Cl)=C(NCc2ccccc2)C(=O)N1c1ccccc1 | -0.99% |
| CC(C)(C)c1ccc(C(=O)Nc2nc[nH]n2)cc1 | 3.46% |
| CCCCN1CCc2c([nH]c3ccccc23)C1=O | -5.46% |
| Cc1cccc(NC(=O)C(Cc2ccccc2)N2Cc3ccccc3C2=O)n1 (centres unmarked) | 0.822% |
| O=C(N/C(=C\c1ccco1)C(=O)N1CCCCC1)c1ccc(Br)o1 | 2.36% |
| CCCCN(C)S(=O)(=O)c1c(C(=O)OCC)c(C)n(C)c1C | 7.7% |
| Cc1csc(NC(=O)CN(C)S(=O)(=O)c2cccc3cccnc23)n1 | -4.21% |
